According to PubChem BioAssay AID360 (National Center for Advancing Translational Sciences (NCATS), 2006):
Hit rate of the full screen: of about 48,000 compounds, about 550 (1.1%) were called active. Roughly 4% stayed inconclusive and do not appear here. Cut-off read from the data, not from the text of the source: active = potency below about 15 µM; inconclusive = mostly about 16 µM to 33 µM; inactive = weaker than that. The list shows a part of the results.

target: Lysosomal acid glucosylceramidase (Homo sapiens) (UniProt P04062); experiment: Glucocerebrosidase; settings: purified enzyme, resorufin glucoside fluorescence (screen aimed at inhibitors), 20 min;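 note: the screen sought inhibitors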
UniProt P04062, sequence (P04062 whole entry, looked up): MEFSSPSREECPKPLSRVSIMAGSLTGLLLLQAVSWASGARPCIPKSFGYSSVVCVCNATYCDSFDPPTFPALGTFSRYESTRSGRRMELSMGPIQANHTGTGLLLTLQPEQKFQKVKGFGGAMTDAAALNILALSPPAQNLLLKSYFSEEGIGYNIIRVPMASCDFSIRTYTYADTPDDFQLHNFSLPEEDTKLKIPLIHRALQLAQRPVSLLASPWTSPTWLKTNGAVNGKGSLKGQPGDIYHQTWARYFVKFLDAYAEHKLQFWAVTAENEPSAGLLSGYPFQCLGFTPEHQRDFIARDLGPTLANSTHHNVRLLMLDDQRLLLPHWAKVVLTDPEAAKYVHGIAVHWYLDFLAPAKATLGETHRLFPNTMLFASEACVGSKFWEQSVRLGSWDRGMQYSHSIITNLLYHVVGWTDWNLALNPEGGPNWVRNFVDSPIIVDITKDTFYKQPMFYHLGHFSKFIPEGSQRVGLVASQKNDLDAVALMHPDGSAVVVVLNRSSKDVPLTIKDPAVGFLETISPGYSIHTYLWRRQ
Method in brief: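 Compounds titrated against 0.2 nM normal enzyme, 30 uM resorufin beta-D-glucopyranoside substrate, citrate/phosphate buffer with taurocholate and tween-20, pH 5.9. Reaction ran 20 min at room temperature; fluorescence (Ex 548/Em 600) gave AC50.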
Potency is the fitted concentration of half-maximal effect.

Potency, inactive:
CCn1c(COc2ccccc2C)nnc1SCC(=O)N1CCCCC1 > 76.9 µM, O=C(NCCCN1CCCC1=O)c1cccnc1 > 76.9 µM, CCOC(=O)c1cc2c(=O)n3cccc(C)c3nc2n(CCOC)c1=NC(=O)c1ccncc1 > 76.9 µM, COc1ccc(C(=O)Nc2ccc(S(=O)(=O)Nc3onc(C)c3C)cc2)cc1, O=C(NC1(C(F)(F)F)N=C2SCCN2C1=O)C1CCCCC1 (stereo unspecified) > 76.9 µM, O=S(=O)(NC1CC1)c1ccc(S(=O)(=O)N2CCCC3(CCCCC3)C2)cc1 > 76.9 µM, O=C1OC(Nc2nccs2)c2ccccc21 (stereo unspecified) > 76.9 µM, COc1cccc(Oc2coc3c(CN4CCOCC4)c(O)ccc3c2=O)c1 > 76.9 µM, CCN1CCN(CCNC(=O)c2ccc(CS(=O)(=O)c3ccccc3C)o2)CC1 > 76.9 µM, Cn1c(=O)[nH]c(=O)c2c1nc(Br)n2CCCO > 76.9 µM, CCN(CC)CCNC(=O)CCn1c(=S)[nH]c2cc3c(cc2c1=O)OCO3 > 76.9 µM, Cc1cc(C)c(C)c(S(=O)(=O)NCc2cccnc2)c1C > 76.9 µM, O=C(NCC(=O)N1CCCC1)c1cccs1 > 76.9 µM, Cc1onc(-c2ccccc2)c1C(=O)n1nnc2ccccc21 > 76.9 µM, Cc1cc(NC(=O)Cn2nc(C(F)(F)F)c3c2CCC3)n(-c2ccccc2)n1 > 76.9 µM, CC1(C)Cc2noc(N)c2C(C)(C)N1OC(=O)c1scc2c1OCCO2 > 76.9 µM, CC(=O)c1ccc(OCC(=O)NC2CCS(=O)(=O)C2)cc1 (stereo unspecified) > 76.9 µM, Cc1cc2c(cc1C)NC(c1cccnc1)C1=C(CC(C)(C)CC1=O)N2 (stereo unspecified) > 76.9 µM, CC(=O)C1=C(O)C(=O)N(CCN2CCOCC2)C1c1ccccc1 (stereo unspecified) > 76.9 µM, CN(C(=O)c1ccc(=O)[nH]c1)C1(C(=O)NC2CCCCC2)CCCCC1 > 76.9 µM, CCn1c(=O)cc(SCC(=O)NCC2CCCO2)c2ccccc21 (stereo unspecified) > 76.9 µM, O=C(NC1CCCC1)C(c1ccc(N2CCOCC2)cc1)N(Cc1ccccc1)C(=O)c1ccco1 (stereo unspecified) > 76.9 µM, CCOC(=O)C1CCN(C(=O)CCCN2C(=O)c3ccccc3C2=O)CC1 > 76.9 µM, Cc1noc(/C=C/c2ccco2)c1S(=O)(=O)N1CCC(C(=O)N(C)Cc2ccccc2)CC1 > 76.9 µM, Cc1nc2sccn2c1P(c1c(C)nc2sccn12)c1c(C)nc2sccn12 > 76.9 µM, Cc1cc2ncn(C(=O)c3ccc4c(c3)OCO4)c2cc1C > 76.9 µM, CCN(CC)c1nc2cc(OC)ccc2cc1C#N > 76.9 µM, Cc1cc(C(=O)N2CCc3ccccc32)c2cc(F)ccc2n1 > 76.9 µM, NC(=O)C1(N2CCCCC2)CCN(C(=O)CSc2nc3ccccc3o2)CC1 > 76.9 µM, Cc1cc(C)c2c(N)c(C(=O)NCc3ccco3)sc2n1 > 76.9 µM, O=C1CSC(=NC2CCCCC2)N1 > 76.9 µM, O=C(c1cccs1)N1CCN(C(=O)c2ccco2)c2ccccc2C1 > 76.9 µM, Cc1cc(N2CCCCC2)nc(SCC(=O)c2ccccc2)n1 > 76.9 µM, O=C(Nc1sc2c(c1C(=O)NCc1cccnc1)CCCC2)c1ccco1 > 76.9 µM, O=C1CC(N2CCC(c3nc4ccccc4o3)CC2)C(=O)N1Cc1cccs1 (stereo unspecified) > 76.9 µM, COCCOC(=O)C1=C(C)N=C2SCCC(=O)N2C1c1cc(Br)ccc1OC (stereo unspecified) > 76.9 µM, O=CNCC(=O)NC1CCCCCC1 > 76.9 µM, CC(=O)OCP(C)(=O)COC(C)=O > 76.9 µM, O=c1cc(N2CCN(c3cccc(Cl)c3)CC2)[nH]c(=O)n1C1CCCCC1 > 76.9 µM, CCOC(=O)C1(Cc2ccc(O)cc2)NC(c2ccccc2F)C2C(=O)N(C)C(=O)C21 (stereo unspecified) > 76.9 µM, CCOC(=O)C(C)Sc1nc2ccccc2c(=O)n1CC (stereo unspecified) > 76.9 µM, CC(C)(C)CC(=O)Nc1nnc(-c2cccs2)s1 > 76.9 µM, COc1ccccc1CNC(=O)C(C)NS(=O)(=O)c1ccccc1 (stereo unspecified) > 76.9 µM, O=C1c2ccccc2C(=O)N1Cc1nc(-c2ccncc2)no1 > 76.9 µM, CC(=O)N1CCc2cc(S(=O)(=O)CCC(=O)NCc3cccs3)ccc21 > 76.9 µM, [O-]/[N+](=C/c1ccc(F)cc1)c1ccccc1 > 76.9 µM, OC(CN1CCCCC1)Cn1c(C(F)(F)F)nc2ccccc21 (stereo unspecified) > 76.9 µM, Cc1cc(N)c(-n2cc3c(=O)n(C)c(=O)n(C)c3c2)cc1C > 76.9 µM, C=CCn1c(SCC(=O)Nc2ccc(C)cc2C)nnc1-c1cccnc1 > 76.9 µM, N=c1n(Cc2ccc(Cl)cc2)c2ccccc2n1CC(O)c1ccco1 (stereo unspecified) > 76.9 µM, FC(F)(F)c1ccc(N2CCN(c3cc(-c4ccccc4)nc4ncnn34)CC2)nc1 > 76.9 µM, Cc1nc(S(=O)(=O)N(C)Cc2ccccc2)c(C#N)c(C)c1Cl > 76.9 µM, COc1ccc2nc(C)[nH]c(=O)c2c1 > 76.9 µM, Cc1ccc(C(=O)Nc2nncs2)cc1S(=O)(=O)N1CCOCC1 > 76.9 µM, COCc1cc(C)nc(NC2CCCCC2)c1C#N > 76.9 µM, Cc1ccc(S(=O)(=O)N(C)CCCC(=O)n2nc(C)cc2C)cc1 > 76.9 µM, O=C(Nc1cccc(Oc2c(F)c(F)c(F)c(F)c2F)c1)N1C[C@@H]2C[C@@H](C1)c1cccc(=O)n1C2 > 76.9 µM, O=C(O)CCc1nc(-c2cccs2)no1 > 76.9 µM, Cc1ccc2cc(C(c3nnnn3C3CCCC3)N3CCOCC3)c(=O)[nH]c2c1C (stereo unspecified) > 76.9 µM, CCOc1cc(NC(=O)c2cnccn2)c(OCC)cc1NC(=O)c1ccc(OC)cc1 > 76.9 µM, COc1ccc(OC)c(NC(=O)CSc2nc(C)cs2)c1 > 76.9 µM, COc1ccc(C(=O)Nn2c(C)ccc2C)cc1OC > 76.9 µM, CCCn1c(N)c(C(=O)COC(=O)c2c(C)noc2C)c(=O)n(C)c1=O > 76.9 µM, COC(=O)c1ccc(C2CC(=O)Nc3cc(OC)c(OC)cc32)cc1 (stereo unspecified) > 76.9 µM, O=C1CC(Sc2nnc(-c3ccccc3O)o2)C(=O)N1c1ccccc1 (stereo unspecified) > 76.9 µM, CC(=O)/C=C(/C)NC(Cc1c[nH]c2ccccc12)C(=O)O (stereo unspecified) > 76.9 µM, Cc1ccccc1OCC(=O)Nc1ccc2c(c1)COC2=O > 76.9 µM, Cn1c(SCc2ccccc2Cl)nnc1-c1cnccn1 > 76.9 µM, Cc1c(CNC(=O)c2cnn3c2NC(c2ccc(Br)cc2)CC3C(F)(F)F)cnn1C (stereo unspecified) > 76.9 µM, O=C(CCC(=O)N1CCN(S(=O)(=O)c2ccccc2)CC1)NC1CCCc2ccccc21 (stereo unspecified) > 76.9 µM, COc1ccccc1CN1C(=O)c2ccncc2C1=O > 76.9 µM, O=C(OCC(=O)N1CCN(c2ccccc2)CC1)c1ccco1 > 76.9 µM, CN(C)CCNC(=O)Cn1nc(-c2ccc(Cl)cc2)ccc1=O > 76.9 µM, COc1ccc2nc3c(cc2c1)c(NC(=O)C1CCCO1)nn3CC(C)C (stereo unspecified) > 76.9 µM, COc1ccc(NC(=O)N2CCCC2)cc1OC > 76.9 µM, O=S(=O)(NC1CCCCC1)c1ccc(S(=O)(=O)N2CCN3CCCC3C2)cc1 (stereo unspecified), CC(=O)c1c(C(C)=O)c(C)n(CCCCn2c(C)c(C(C)=O)c(C(C)=O)c2C)c1C > 76.9 µM, O=S(NCc1ccco1)C12CC3CC(CC(C3)C1)C2 (stereo unspecified) > 76.9 µM, Cc1cc(C)n2nc(Cc3ccccc3)nc2n1 > 76.9 µM, COc1cc(NS(=O)(=O)c2ccc(Br)s2)cc(OC)c1 > 76.9 µM, O=C(Oc1cccc2c(=O)[nH]ccc12)c1ccccc1 > 76.9 µM, CC(C)CN(C(=O)CSc1nnc2c(Cl)cc(C(F)(F)F)cn12)C1CCS(=O)(=O)C1 (stereo unspecified) > 76.9 µM, CN1CCN(c2nc3c(c(=O)[nH]c(=O)n3C)n2CC(N)=O)CC1 > 76.9 µM, CCN1C(=O)/C(=C2\C=Cc3ccccc3N2CC)OC1=S > 76.9 µM, C=CCn1c(COc2ccccc2)nnc1SCc1ccc(C#N)cc1 > 76.9 µM, O=C(Cn1cnc2ccccc2c1=O)OCC(=O)c1ccc2c(c1)OCCO2 > 76.9 µM, CN1CCN(/C(=N\S(=O)(=O)c2ccc(F)cc2)c2ccccc2)CC1 > 76.9 µM, CC1(c2ccc(OC(F)F)cc2)NC(=O)N(CC(=O)NC2CCCCC2)C1=O (stereo unspecified) > 76.9 µM, O=C(CSc1nc2ccccc2c(=O)n1CCCO)NCc1ccccc1 > 76.9 µM, CC(=O)c1ccc(N2CCN(C(=O)c3ccco3)CC2)c(F)c1 > 76.9 µM

Potency, active:
Nc1nc(CN2CCN(c3ccccc3F)CC2)nc(Nc2ccccc2)n1 2.32 µM
